Assay results reported in paper PMC10567701.
No constants are given. Whether binding was seen depends on the method and setting. Binding seen in cells or lysates may run through a third protein. Some binding calls cover weakened binding; strength is not graded here.

By UniProt entry, the sequences of proteins in these tests, tags left out. Residues count along the entry.
UniProt P0ADC1, residues 19-193: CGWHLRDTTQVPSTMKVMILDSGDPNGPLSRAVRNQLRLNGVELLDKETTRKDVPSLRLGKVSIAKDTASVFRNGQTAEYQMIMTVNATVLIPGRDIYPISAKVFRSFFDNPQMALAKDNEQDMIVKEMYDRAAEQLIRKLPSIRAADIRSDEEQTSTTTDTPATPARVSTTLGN
UniProt P0A937, residues 20-113: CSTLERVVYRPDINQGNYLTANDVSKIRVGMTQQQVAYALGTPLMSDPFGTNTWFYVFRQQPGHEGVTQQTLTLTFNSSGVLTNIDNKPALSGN
UniProt P0AC02, residues 20-245: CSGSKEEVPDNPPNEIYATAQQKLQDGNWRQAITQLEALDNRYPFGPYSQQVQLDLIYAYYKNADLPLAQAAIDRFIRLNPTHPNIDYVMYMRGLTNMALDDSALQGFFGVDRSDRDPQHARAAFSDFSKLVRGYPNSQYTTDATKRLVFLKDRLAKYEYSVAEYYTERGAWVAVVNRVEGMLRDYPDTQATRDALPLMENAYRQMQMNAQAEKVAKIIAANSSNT

Tests used:
[1] = molecular target: LptE^His (Escherichia coli) (UniProt P0ADC1); experiment: pull-down; Ni-affinity purification of LptE^His from the DDM-solubilized envelope fraction of wild-type (lptM^+) cells with pLptDE^His; Ni-NTA 2 h at 4 °C, 50 mM Tris-HCl pH 8, 150 mM NaCl, DDM; SDS-PAGE or BN-PAGE, Coomassie staining or Western blotting
[2] = molecular target: LptE^His (Escherichia coli) (UniProt P0ADC1); experiment: pull-down; Ni-affinity purification of LptE^His from the DDM-solubilized envelope fraction of ΔlptM cells with pLptDE^His or its LptD Cys-to-Ser derivatives; Ni-NTA 2 h at 4 °C, 50 mM Tris-HCl pH 8, 150 mM NaCl, DDM; SDS-PAGE or BN-PAGE, Coomassie staining or Western blotting

| Substance | binding [1] | binding [2] |
| --- | --- | --- |
| BamE (from UniProt P0A937 20-113) | no binding (condition: from lptM^+ cells (LptM present)) | binds |
| BamD (from UniProt P0AC02 20-245) | no binding (condition: from lptM^+ cells (LptM present)) | binds |
